# Data as given in the supplement of paper PMC11876631.
# Substitutions are numbered along the chain they refer to. Names and notes keep the numbering of the source. ± gives the standard deviation of the averaged measurements. Laboratory Escherichia coli strains with one amino-acid change in an essential protein, pooled on minimal glucose agar with carbenicillin or gentamicin at twice the control MIC (plus kanamycin and chloramphenicol for the plasmids), 48 h. Fold change of barcode share against drug-free plates; higher = less susceptible. Active = above 20 in both replicates (the paper's putatively resistant). '<' = one read or none on drug, '>' = one read or none on a drug-free plate. Shares are relative, so most strains fall below 1 when a few take over. Listed are strains with at least 15 reads on both drug-free plates, and hits; most hits rest on fewer reference reads. Replicate rank correlation about 0.5. Edits are read from barcodes.
# B1: aroC V339Q (protein)
# chain: MAGNTIGQLFRVTTFGESHGLALGCIVDGVPPGIPLTEADLQHDLDRRRPGTSRYTTQRREPDQVKILSGVFEGVTTGTSIGLLIENTDQRSQDYSAIKDVFRPGHADYTYEQKYGLRDYRGGGRSSARETAMRVAAGAIAKKYLAEKFGIEIRGCLTQMGDIPLDIKDWSQVEQNPFFCPDPDKIDALDELMRALKKEGDSIGAKVTVVASGVPAGLGEPVFDRLDADIAHALMSINAVKGVEIGDGFDVVALRGSQNRDEITKDGFQSNHAGGILGGISSGQQIIAHMALKPTSSITVPGRTINRFGEEVEMITKGRHDPCVGIRAVPIAEAMLAIQLMDHLLRQRAQNADVKTDIPRW
# B2: aroC V339P (protein)
# chain: B1 chain with Q339P
# B3: lolE M293P (protein)
# chain: MAMPLSLLIGLRFSRGRRRGGMVSLISVISTIGIALGVAVLIVGLSAMNGFERELNNRILAVVPHGEIEAVDQPWTNWQEALDHVQKVPGIAAAAPYINFTGLVESGANLRAIQVKGVNPQQEQRLSALPSFVQGDAWRNFKAGEQQIIIGKGVADALKVKQGDWVSIMIPNSNPEHKLMQPKRVRLHVAGILQLSGQLDHSFAMIPLADAQQYLDMGSSVSGIALKMTDVFNANKLVRDAGEVTNSYVYIKSWIGTYGYMYRDIQMIRAIMYLAMVLVIGVACFNIVSTLVPAVKDKSGDIAVLRTLGAKDGLIRAIFVWYGLLAGLFGSLCGVIIGVVVSLQLTPIIEWIEKLIGHQFLSSDIYFIDFLPSELHWLDVFYVLVTALLLSLLASWYPARRASNIDPARVLSGQ
# B4: lolE L371A (protein)
# chain: B3 chain with P293M, L371A
# B5: lolE L371P (protein)
# chain: B3 chain with P293M, L371P
# B6: lolE F319A (protein)
# chain: B3 chain with P293M, F319A
# B7: lolE L371Q (protein)
# chain: B3 chain with P293M, L371Q
# B8: lolE L371W (protein)
# chain: B3 chain with P293M, L371W
# B9: lptA V121A (protein)
# chain: MKFKTNKLSLNLVLASSLLAASIPAFAVTGDTDQPIHIESDQQSLDMQGNVVTFTGNVIVTQGTIKINADKVVVTRPGGEQGKEVIDGYGKPATFYQMQDNGKPVEGHASQMHYELAKDFAVLTGNAYLQQVDSNIKGDKITYLVKEQKMQAFSDKGKRVTTVLVPSQLQDKNNKGQTPAQKKGN
# B10: lptA L123A (protein)
# chain: B9 chain with A121V, L123A
# B11: lptA L123Q (protein)
# chain: B9 chain with A121V, L123Q
# B12: lptA V121W (protein)
# chain: B9 chain with A121W
# B13: lptA I38A (protein)
# chain: B9 chain with I38A, A121V
# B14: lptA L123W (protein)
# chain: B9 chain with A121V, L123W
# B15: lptA V121Q (protein)
# chain: B9 chain with A121Q
# Biological target: Escherichia coli (laboratory strain)
# Assay: barcode share on antibiotic plates over drug-free plates; higher = less susceptible
# Details: antibiotic: carbenicillin; 2× MIC (3.1 µg/mL)
# Protocol: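 A pool of E. coli strains, each edited to carry one amino-acid change in an essential protein, was grown for 48 h on minimal glucose agar with or without antibiotic; strain barcodes were sequenced; mean of two replicates.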
row,Protein,fold change of barcode share
1,B1,0.402 ± 0.16
2,B2,1.2 ± 0.23
3,B3,0.141 ± 0.05
4,B4,0.232 ± 0.057
5,B5,1.14 ± 0.91
6,B6,0.221 ± 0.055
7,B7,0.155 ± 0.15
8,B8,0.688 ± 0.083
9,B9,0.273 ± 0.044
10,B10,0.253 ± 0.028
11,B11,0.6973 ± 0.0036
12,B12,0.331 ± 0.098
13,B13,0.334 ± 0.14
14,B14,0.245 ± 0.03
15,B15,0.396 ± 0.068

# Same assay, conditions: antibiotic: gentamicin; 2× MIC (MIC 0.45 µg/mL)
row,Protein,fold change of barcode share
1,B3,0.00862 ± 0.0073
2,B4,0.788 ± 0.72
3,B5,< 0.00687
4,B6,< 0.0116
5,B7,0.0234 ± 0.016
6,B8,0.00627 ± 0.0055
7,B9,0.00589 ± 0.00036
8,B10,0.00352 ± 0.00067
9,B11,0.00392 ± 0.0017
10,B12,0.00544 ± 0.0035
11,B13,0.0205 ± 0.0049
12,B14,0.00571 ± 0.0042
13,B15,0.0155 ± 0.017
